# Some of the results follow.
# Legend:
# Assay in all cases: glycan array binding signal (z-score within array); higher = stronger binding
# Details in all cases: glycan notation: IUPAC condensed, linker removed
# [1] = molecular target: Neu5Ac(a2-6)GalNAc(b1-4)GlcNAc
# Method in brief: (§1)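 Glycan array binding is given as a within-array Z-score, which can be read as non-binding when negative. The arrays, 3228 of them, came from the Consortium for Functional Glycomics database and were retained only where the protein sequence was available. Z-scores were averaged across arrays of the same protein sequence at different concentrations or buffers and across linkers.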
# [2] = molecular target: Neu5Ac(a2-6)GalNAc(b1-4)GlcNAc6S
# Method in brief: as §1
# [3] = molecular target: Neu5Ac(a2-6)GlcNAc(b1-4)GlcNAc
# Method in brief: as §1
# [4] = molecular target: Neu5Ac(a2-6)GlcNAc(b1-4)GlcNAc(b1-4)GlcNAc
# Method in brief: as §1
# Neu5Ac(a2-8)Neu5Ac = molecular target: Neu5Ac(a2-8)Neu5Ac
# Method in brief: as §1
# [5] = molecular target: Neu5Ac(a2-8)Neu5Ac(a2-3)Gal(b1-3)GalNAc(b1-4)[Neu5Ac(a2-3)]Gal(b1-4)Glc
# Method in brief: as §1
# [6] = molecular target: Neu5Ac(a2-8)Neu5Ac(a2-3)Gal(b1-3)GalNAc(b1-4)[Neu5Ac(a2-8)Neu5Ac(a2-3)]Gal(b1-4)Glc
# Method in brief: as §1
# [7] = molecular target: Neu5Ac(a2-8)Neu5Ac(a2-3)Gal(b1-4)Glc
# Method in brief: as §1
# [8] = molecular target: Neu5Ac(a2-8)Neu5Ac(a2-3)Gal(b1-4)GlcNAc
# Method in brief: as §1
# [9] = molecular target: Neu5Ac(a2-8)Neu5Ac(a2-3)[Gal(b1-3)GalNAc(b1-4)]Gal(b1-4)Glc
# Method in brief: as §1
# [10] = molecular target: Neu5Ac(a2-8)Neu5Ac(a2-3)[GalNAc(b1-4)]Gal(b1-4)Glc
# Method in brief: as §1
# [11] = molecular target: Neu5Ac(a2-8)Neu5Ac(a2-8)Neu5Ac
# Method in brief: as §1
# [12] = molecular target: Neu5Ac(a2-8)Neu5Ac(a2-8)Neu5Ac(a2-3)Gal(b1-4)Glc
# Method in brief: as §1
# [13] = molecular target: Neu5Ac(a2-8)Neu5Ac(a2-8)Neu5Ac(a2-3)[Gal(b1-3)GalNAc(b1-4)]Gal(b1-4)Glc
# Method in brief: as §1
# [14] = molecular target: Neu5Ac(a2-8)Neu5Ac(a2-8)Neu5Ac(a2-3)[GalNAc(b1-4)]Gal(b1-4)Glc
# Method in brief: as §1
# [15] = molecular target: Neu5Ac(a2-8)Neu5Ac(a2-8)Neu5Ac(a2-8)Neu5Ac(a2-3)[GalNAc(b1-4)]Gal(b1-4)Glc
# Method in brief: as §1
# [16] = molecular target: Neu5Ac(a2-8)Neu5Gc(a2-3)Gal(b1-4)GlcNAc
# Method in brief: as §1
# [17] = molecular target: Neu5Ac(b2-6)Gal(b1-4)GlcNAc
# Method in brief: as §1
# Neu5Ac(b2-6)GalNAc = molecular target: Neu5Ac(b2-6)GalNAc
# Method in brief: as §1
# [18] = molecular target: Neu5Ac9Ac(a2-3)Gal(b1-3)GlcNAc
# Method in brief: as §1
# [19] = molecular target: Neu5Ac9Ac(a2-3)Gal(b1-4)GlcNAc
# Method in brief: as §1
# [20] = molecular target: Neu5Ac9Ac(a2-6)Gal(b1-4)GlcNAc
# Method in brief: as §1
# [21] = molecular target: Neu5Gc(a2-3)Gal(b1-3)GlcNAc
# Method in brief: as §1
# [22] = molecular target: Neu5Gc(a2-3)Gal(b1-3)[Fuc(a1-4)]GlcNAc
# Method in brief: as §1
# Neu5Gc(a2-3)Gal(b1-4)Glc = molecular target: Neu5Gc(a2-3)Gal(b1-4)Glc
# Method in brief: as §1
# [23] = molecular target: Neu5Gc(a2-3)Gal(b1-4)GlcNAc
# Method in brief: as §1
# [24] = molecular target: Neu5Gc(a2-3)Gal(b1-4)GlcNAc(b1-3)Gal(b1-4)GlcNAc(b1-2)Man(a1-3)[Neu5Gc(a2-3)Gal(b1-4)GlcNAc(b1-3)Gal(b1-4)GlcNAc(b1-2)Man(a1-6)]Man(b1-4)GlcNAc(b1-4)GlcNAc
# Method in brief: as §1
# [25] = molecular target: Neu5Gc(a2-3)Gal(b1-4)[Fuc(a1-3)]GlcNAc
# Method in brief: as §1
# [26] = molecular target: Neu5Gc(a2-6)Gal(b1-4)GlcNAc
# Method in brief: as §1
# Neu5Gc(a2-6)GalNAc = molecular target: Neu5Gc(a2-6)GalNAc
# Method in brief: as §1
# [27] = molecular target: Neu5Gc(a2-8)Neu5Ac(a2-3)Gal(b1-4)GlcNAc
# Method in brief: as §1
# [28] = molecular target: Neu5Gc(a2-8)Neu5Gc(a2-3)Gal(b1-4)GlcNAc
# Method in brief: as §1
# [29] = molecular target: Neu5Gc(a2-8)Neu5Gc(a2-3)Gal(b1-4)GlcNAc(b1-3)Gal(b1-4)GlcNAc
# Method in brief: as §1
# [30] = molecular target: Neu5Gc(a2-8)Neu5Gc(a2-6)Gal(b1-4)GlcNAc
# Method in brief: as §1
# [31] = molecular target: Neu5Gc(b2-6)Gal(b1-4)GlcNAc
# Method in brief: as §1
binder,measurement,setting,value
"Epa9 (Candida glabrata), CAGL0A01386g (protein) MGSSHHHHHHSSGLVPRGSHMDITPFAHYPRPEGCSSPPNAVSVGLHMDLYNYPYLYVKNPRTGFTNDTDSDADGETDGDSAGGIEGRAGQCWNPEYQDPNFPRYGYKKYGSFGSSDHVNGKISWDHNEFKEGCKPIMARLPTAYNYPAKITFSNFTMVLSGYFKPKSTGLYKFEIHADDFILFNFGSKNAFECCNREESIDNFGPYVAYAMWPNEADQELEVYLFEDSYYPIRLFYNNRDYHSKFMVGFYPPNTEEITYDFDGYLYMLDDTGNECKDSIRYKTVCDD",glycan array binding signal (z-score),[1],-0.519
same,glycan array binding signal (z-score),[2],-0.452
same,glycan array binding signal (z-score),[3],-0.448
same,glycan array binding signal (z-score),[4],-0.485
same,glycan array binding signal (z-score),Neu5Ac(a2-8)Neu5Ac,-0.517
same,glycan array binding signal (z-score),[5],-0.395
same,glycan array binding signal (z-score),[6],0.299
same,glycan array binding signal (z-score),[7],-0.54
same,glycan array binding signal (z-score),[8],-0.481
same,glycan array binding signal (z-score),[9],0.516
same,glycan array binding signal (z-score),[10],-0.564
same,glycan array binding signal (z-score),[11],-0.463
same,glycan array binding signal (z-score),[12],-0.585
same,glycan array binding signal (z-score),[13],-0.301
same,glycan array binding signal (z-score),[14],-0.596
same,glycan array binding signal (z-score),[15],-0.649
same,glycan array binding signal (z-score),[16],-0.494
same,glycan array binding signal (z-score),[17],-0.481
same,glycan array binding signal (z-score),Neu5Ac(b2-6)GalNAc,-0.48
same,glycan array binding signal (z-score),[18],-0.479
same,glycan array binding signal (z-score),[19],-0.45
same,glycan array binding signal (z-score),[20],-0.486
same,glycan array binding signal (z-score),[21],-0.457
same,glycan array binding signal (z-score),[22],-0.462
same,glycan array binding signal (z-score),Neu5Gc(a2-3)Gal(b1-4)Glc,-0.47
same,glycan array binding signal (z-score),[23],-0.465
same,glycan array binding signal (z-score),[24],-0.421
same,glycan array binding signal (z-score),[25],-0.435
same,glycan array binding signal (z-score),[26],-0.428
same,glycan array binding signal (z-score),Neu5Gc(a2-6)GalNAc,-0.467
same,glycan array binding signal (z-score),[27],-0.456
same,glycan array binding signal (z-score),[28],-0.455
same,glycan array binding signal (z-score),[29],-0.468
same,glycan array binding signal (z-score),[30],-0.488
same,glycan array binding signal (z-score),[31],-0.447

# Source: the supplement of paper PMC8728848
